About 1,700 (0.52%) of roughly 330,000 compounds were called active. The shares of active, inactive and inconclusive entries below differ from those in the screen. The call rests on the fitted dose curve; in most records, active means well fitted inhibition curve with a large enough effect; inconclusive means small, poorly fitted or top-dose-only effect; inactive means no such curve, though single readings can be large or run the other way. Potencies beside an inconclusive call are fits to weak or partial responses and may not hold up.
Biological target: Beta-lactamase (Escherichia coli (strain K12)) (UniProt P00811)
Chain of UniProt P00811 (P00811 whole entry, looked up): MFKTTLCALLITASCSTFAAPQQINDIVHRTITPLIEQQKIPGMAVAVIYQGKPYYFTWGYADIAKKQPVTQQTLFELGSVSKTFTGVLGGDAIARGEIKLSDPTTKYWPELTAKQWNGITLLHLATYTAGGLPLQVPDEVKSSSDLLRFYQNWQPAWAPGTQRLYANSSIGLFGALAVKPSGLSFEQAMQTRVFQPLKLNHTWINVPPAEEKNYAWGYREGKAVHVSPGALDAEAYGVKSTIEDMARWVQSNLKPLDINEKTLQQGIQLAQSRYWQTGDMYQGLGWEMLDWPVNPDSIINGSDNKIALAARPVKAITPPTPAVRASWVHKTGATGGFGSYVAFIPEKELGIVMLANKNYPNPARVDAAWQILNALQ
Assay: qHTS Inhibitors of AmpC Beta-Lactamase (assay without detergent); further: nearly all actives have a fitted effect of over 20% in size
Conditions: AmpC nitrocefin hydrolysis, absorbance 480 nm, 0.0001% Triton; series mostly up to 57.1 µM
Method in brief: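 20 mM phosphate pH 7.0 + 0.01% (detergent screen) or 0.0001% Triton X-100; 5.3 nM AmpC reagent; cpd preinc 15 min RT; nitrocefin (800 uM stock) to start; A480 q20 s × 4 min; Activity was normalised to no-enzyme and no-compound control wells.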
Potency means the concentration at half of the fitted maximal effect; tags describe the fitted curve by direction and shape.

Structure (SMILES) | Potency
O=C1c2ccccc2CN1CCNS(=O)(=O)c1ccc(Cl)cc1 | inconclusive: 6.31 µM [inhibitor, single point]
COc1ccc(NC(=O)c2cc(-c3ccc(C)c(C)c3O)n[nH]2)cc1Cl | active: 17.8 µM
Cc1ccc(C)c(/C=N/n2cc(-c3ccccc3)[nH]c2=S)c1 | active: 15.8 µM
CC1CCN(C(=O)CSc2nnc(Cc3cccn3C)n2-c2ccc(F)cc2)CC1 | active: 6.31 µM
COc1ccc(NC(=O)Nc2ccc(C)cc2OC(F)F)cc1OC | inconclusive: 5.62 µM [inhibitor, single point]
Cc1c(C(=O)N2CCCCC2)c(S(=O)(=O)N2CCC(C)CC2)c(C)n1C | inactive
O=C(NC1CCCCCC1)c1ccc(CS(=O)Cc2cccc(Cl)c2)o1 (stereo unspecified) | inactive
O=C(NCC1CCCO1)c1cc(S(=O)(=O)N2CCCC2)c(Cl)cc1Cl (stereo unspecified) | inactive
O=C(COC(=O)c1n[nH]c2ccccc12)Nc1cccc(S(=O)(=O)N2CCOCC2)c1 | inconclusive: 15.8 µM [inhibitor, partial curve]
CC1CCN(c2cc(=O)n(C3CCCCC3)c(=O)[nH]2)CC1 | inconclusive: 7.94 µM [inhibitor, full curve, poor fit]
Cc1cc(N2CCC(N(C)C3CCCC3)CC2)nc2cc(O)ccc12 | inconclusive: 0.316 µM [inhibitor, full curve, poor fit]
O=C(O)C(c1ccccc1)C(c1ccccc1)c1ccccc1 (stereo unspecified) | inactive
CCCCc1ccc(C2C3=C(CC(C)(C)CC3=O)NC3=C2C(=O)c2ccccc23)cc1 (stereo unspecified) | inconclusive: 2.24 µM [inhibitor, full curve]
Cc1nnnn1/C(=C\c1ccccc1)C(=O)OCC(=O)Nc1cccc(S(=O)(=O)N(C)C)c1 | inconclusive: 31.6 µM [inhibitor, single point]
COc1ccccc1/C=C/C=N/NC(=O)c1cc(-c2ccco2)[nH]n1 | inconclusive: 2 µM [inhibitor, full curve, poor fit]
Oc1ccc(C2C(c3ccccc3)=NN=C(c3ccc(Cl)cc3)N2O)c(O)c1 (stereo unspecified) | active: 25.1 µM
COc1ccc(NC(=S)NC(NC(=O)c2ccc(Cl)cc2Cl)C(Cl)(Cl)Cl)c([N+](=O)[O-])c1 (stereo unspecified) | inconclusive: 7.08 µM [inhibitor, full curve, poor fit]
CC(C)(C)c1csc(N/N=C/c2ccc(O)cc2)n1 | active: 10 µM
O=C(NNS(=O)(=O)c1ccc(Cl)cc1)c1cc(-c2ccccc2)nc2ccccc12 | active: 28.2 µM
CCCN(CCC)C(=O)Cn1c(=O)n(CCCCC(=O)NC2CCCC2)c(=O)c2ccccc21 | active: 0.316 µM
CCCCNC(=O)Nc1ncn[nH]1 | inactive
Cc1ccc(C(=O)C[n+]2cccc3ccccc32)cc1 | active: 0.158 µM
O=C(NCCc1c[nH]c2ccccc12)/C(=C\c1cccs1)NC(=O)c1ccccc1 | inconclusive: 25.1 µM [inhibitor, single point]
Cc1[nH]ccc(=O)c1OCc1c(Cl)cccc1Cl | inconclusive: 0.141 µM [inhibitor, full curve, poor fit]
CCOC(=O)N1CCN(S(=O)(=O)CCNC(=O)c2ccc(OC)cc2)CC1 | inconclusive: 39.8 µM [inhibitor, single point]
CCOc1cc2c3c(c1)C1(C(=O)N3C(C)(C)CC2C)C(C#N)=C(N)N2C(=C1C#N)Nc1ccccc12 (stereo unspecified) | active: 12.6 µM

Structure (SMILES) | Potency
Cc1ccc(NC(=S)Nc2nc(CC(=O)Nc3ccccc3)cs2)cc1 | active: 14.1 µM
Cc1cc(N/N=C/c2cccc(F)c2)nc(NCc2ccccc2)n1 | inconclusive: 6.31 µM [inhibitor, partial curve]
O=C(NNC(=S)NCC1CCCO1)c1cc(Br)ccc1Cl (stereo unspecified) | inactive
CCCCCCOC(=O)/C=C/c1c(C)[nH]c(=O)[nH]c1=O | inconclusive: 0.158 µM [inhibitor, full curve, poor fit]
Cc1ccccc1CSc1nnc(-c2ccco2)n1Cc1ccco1 | inactive
CCOc1cccc(CNCCO)c1OCc1ccc(Cl)cc1Cl | inactive
Clc1ccccc1CN(Cc1ccco1)Cc1nnnn1C1CCCC1 | inactive
COCCn1c(Cc2ccccc2)nnc1SCC(=O)Nc1cc(C)on1 | inconclusive: 0.251 µM [inhibitor, full curve, poor fit]
CCOC(=O)c1ccc(COc2ccc(C(C)C)cc2)o1 | inactive
CCOc1ccccc1NC(=O)C1CC(=O)n2ncnc2N1 (stereo unspecified) | inactive
COc1ccc(CNc2nc(C)c([N+](=O)[O-])c(C)c2C#N)cc1 | inconclusive: 31.6 µM [inhibitor, single point]
COc1cc(OC)cc(-c2c(-c3cccs3)c3cc(Br)ccc3n2C)c1 | inconclusive: 39.8 µM [inhibitor, single point]
COc1ccccc1C(=O)OCC(=O)NC(=O)NC1CCCC1 | inactive
CC(C)n1cnnc1SCC(=O)NC(=O)c1ccccc1 | inactive
COc1ccc(CCn2c(-c3ccc(OC)cc3)nc3c(c(=O)c4ccccc4n3C)c2=O)cc1 | inactive
CCC[C@@H]1C[C@@H](C(=O)N[C@H]([C@@H](C)O)[C@H]2O[C@H](SC)[C@H](O)[C@@H](O)C2O)N(C)C1 (stereo partly specified) | inactive
Cc1ccc(S(=O)(=O)N2CCOCC2)cc1C(=O)N(C)CCOc1ccc(Cl)cc1 | inactive
COC(=O)Nc1sc2c(c1C(N)=O)CCC(C)C2 (stereo unspecified) | inactive
CC(C)N(Cc1ccccc1)C(=O)COC(=O)C1CCN(c2ccc(C(F)(F)F)cn2)CC1 | inactive
COc1ccc(N=Nc2cnc(C)nc2-c2ccccc2)cc1 | inconclusive: 0.141 µM [inhibitor, full curve, poor fit]
COc1cc(-c2nc3cnccn3c2Nc2ccc3c(c2)OCCO3)ccc1O | inconclusive: 6.31 µM [inhibitor, single point]
O=C(CSc1nc2ccc(NC(=O)CSc3nnnn3-c3ccccc3)cc2s1)Nc1ccccc1 | inconclusive: 25.1 µM [inhibitor, partial curve]
Cc1ccc(C(=O)NCCCNC(=O)c2ccco2)cc1C | inactive
Nc1c(-c2ccccn2)cnn1-c1nc(-c2ccc(F)cc2)cs1 | inactive
O=C(CC(NC(=O)c1ccccc1Cl)c1ccccc1)Nc1ccc2c(c1)OCO2 (stereo unspecified) | inconclusive: 11.2 µM [inhibitor, partial curve, poor fit]
Cn1cc(C(=O)c2ccccc2)cc1-c1nc2ccccc2n1C | inactive

Structure (SMILES) | Potency
Cc1ccc(NC(=S)NCC(C)CSc2ccc(Cl)cc2)cc1 (stereo unspecified) | inconclusive: 15.8 µM [inhibitor, partial curve]
CCOc1cc(C2CC(=O)N3CN(C4CCCCC4)CSC3=C2C#N)ccc1O (stereo unspecified) | inconclusive: 11.2 µM [inhibitor, partial curve, poor fit]
O=C(/C=C(\O)c1ccc(Cl)cc1)C(=O)NNC(=O)C(O)(c1ccccc1)c1ccccc1 | inconclusive: 3.98 µM [inhibitor, full curve, poor fit]
O=c1cc2oc3cc(O)c(O)cc3c(-c3ccccc3O)c-2cc1O | active: 15.8 µM
CCOC(=O)c1c(-c2ccccc2Cl)csc1NC(=O)c1cc(S(=O)(=O)N2CCOCC2)ccc1C | inconclusive: 7.08 µM [inhibitor, single point]
Cc1ccc(NC(=O)CC2=NC(=O)C(CC(=O)Nc3ccccc3F)S2)cc1 (stereo unspecified) | inconclusive: 10 µM [inhibitor, partial curve]
CC(=O)NC(CCS(C)(=O)=O)C(=O)Nc1cccc2ccccc12 (stereo unspecified) | active: 4.47 µM
COc1ccc(-c2[nH]c(-c3cccc(OC)c3)nc2SCC(=O)NCc2ccco2)cc1 | active: 10 µM
O=C(COc1ccc(F)c(Cl)c1)c1ccc[nH]1 | inactive
COc1ccc(OC)c(S(=O)(=O)ON2C(=O)c3ccccc3C2=O)c1 | inconclusive: 28.2 µM [inhibitor, single point]
COc1ccc(CCN(C)C(=O)CSc2nnnn2C)cc1OC | inactive
O=C1c2cccc3cccc(c23)C(=O)N1OS(=O)(=O)c1ccccc1 | inconclusive: 3.55 µM [inhibitor, single point]
O=C(NCc1ccccc1F)C(=O)NCC1CCCN1S(=O)(=O)c1ccccc1 (stereo unspecified) | active: 35.5 µM
CCC/C=C(\CCC)C(NS(=O)(=O)c1ccc(C(F)(F)F)cc1)c1ccccc1 (stereo unspecified) | inconclusive: 20 µM [inhibitor, partial curve]
Cc1ccc(NC(=O)/C(C#N)=C/c2cn(CC(=O)NCc3ccco3)c3ccccc23)cc1C | inactive
COc1cccc(/C=N/NC(=O)c2cc(-c3ccccn3)nc3ccccc23)c1O | inconclusive: 7.08 µM [inhibitor, single point]
CCc1cccc(OCC(=O)Nc2ccc(S(=O)(=O)Nc3ccccn3)cc2)c1 | active: 10 µM
Fc1ccc(NC(=S)Nc2ccccc2OC(F)F)cc1Cl | inactive
COc1cccc(C(=O)Nc2nnc(-c3ccccc3)s2)c1 | inconclusive: 31.6 µM [inhibitor, single point]
O=C(N/N=C/c1ccc(O)cc1O)c1ccc(CN2C(=O)c3cccc4cccc2c34)cc1 | active: 7.08 µM
COc1ccc(CN(C)C(C)C(=O)Nc2ccc(S(=O)(=O)N3CCCCC3)cc2)cc1F (stereo unspecified) | inactive
Cc1cccc(C(=O)N/N=C/c2cc(Br)c(Br)o2)c1 | inconclusive: 22.4 µM [inhibitor, single point]
NS(=O)(=O)c1cccc(NC(=O)CSc2nc3ccc(Cl)cc3[nH]2)c1 | active: 17.8 µM
O=C(O)c1ccc(/C=N/NC(=O)c2ccc(NS(=O)(=O)c3cccs3)cc2)cc1 | inconclusive: 10 µM [inhibitor, partial curve]
